Molecular target: T1, RZZS rings: mCherry-RZZ polymerized with farnesylated GFP-Spindly in the presence of MPS1 kinase domain (UniProt P50748 1-2209; Q9H900 1-591; O43264 1-779; Q96EA4 1-605, incubated with MPS1 kinase domain and ATP (the paper names T13 and S15 of ROD as the MPS1 sites) | farnesylated)
T1 construct: ROD, subunit of the RZZ complex; Zwilch, subunit of the RZZ complex; ZW10, subunit of the RZZ complex; Spindly, dynein-dynactin adaptor; A polymer; also called polymerized RZZS; RZZS filaments; copies: + + +
Test: co-sedimentation; pelleting assay: polymerized RZZS incubated with preys 2 hours at 20°C, 40% glycerol cushion, 100,000g 45 min at 20°C; 50 mM Hepes pH 8, 100 mM NaCl, 2 mM MgCl2, 1 mM TCEP
Conditions: both partners purified

T1 sequence (P50748 whole entry, chain 1 of 4, the tested form may be a part): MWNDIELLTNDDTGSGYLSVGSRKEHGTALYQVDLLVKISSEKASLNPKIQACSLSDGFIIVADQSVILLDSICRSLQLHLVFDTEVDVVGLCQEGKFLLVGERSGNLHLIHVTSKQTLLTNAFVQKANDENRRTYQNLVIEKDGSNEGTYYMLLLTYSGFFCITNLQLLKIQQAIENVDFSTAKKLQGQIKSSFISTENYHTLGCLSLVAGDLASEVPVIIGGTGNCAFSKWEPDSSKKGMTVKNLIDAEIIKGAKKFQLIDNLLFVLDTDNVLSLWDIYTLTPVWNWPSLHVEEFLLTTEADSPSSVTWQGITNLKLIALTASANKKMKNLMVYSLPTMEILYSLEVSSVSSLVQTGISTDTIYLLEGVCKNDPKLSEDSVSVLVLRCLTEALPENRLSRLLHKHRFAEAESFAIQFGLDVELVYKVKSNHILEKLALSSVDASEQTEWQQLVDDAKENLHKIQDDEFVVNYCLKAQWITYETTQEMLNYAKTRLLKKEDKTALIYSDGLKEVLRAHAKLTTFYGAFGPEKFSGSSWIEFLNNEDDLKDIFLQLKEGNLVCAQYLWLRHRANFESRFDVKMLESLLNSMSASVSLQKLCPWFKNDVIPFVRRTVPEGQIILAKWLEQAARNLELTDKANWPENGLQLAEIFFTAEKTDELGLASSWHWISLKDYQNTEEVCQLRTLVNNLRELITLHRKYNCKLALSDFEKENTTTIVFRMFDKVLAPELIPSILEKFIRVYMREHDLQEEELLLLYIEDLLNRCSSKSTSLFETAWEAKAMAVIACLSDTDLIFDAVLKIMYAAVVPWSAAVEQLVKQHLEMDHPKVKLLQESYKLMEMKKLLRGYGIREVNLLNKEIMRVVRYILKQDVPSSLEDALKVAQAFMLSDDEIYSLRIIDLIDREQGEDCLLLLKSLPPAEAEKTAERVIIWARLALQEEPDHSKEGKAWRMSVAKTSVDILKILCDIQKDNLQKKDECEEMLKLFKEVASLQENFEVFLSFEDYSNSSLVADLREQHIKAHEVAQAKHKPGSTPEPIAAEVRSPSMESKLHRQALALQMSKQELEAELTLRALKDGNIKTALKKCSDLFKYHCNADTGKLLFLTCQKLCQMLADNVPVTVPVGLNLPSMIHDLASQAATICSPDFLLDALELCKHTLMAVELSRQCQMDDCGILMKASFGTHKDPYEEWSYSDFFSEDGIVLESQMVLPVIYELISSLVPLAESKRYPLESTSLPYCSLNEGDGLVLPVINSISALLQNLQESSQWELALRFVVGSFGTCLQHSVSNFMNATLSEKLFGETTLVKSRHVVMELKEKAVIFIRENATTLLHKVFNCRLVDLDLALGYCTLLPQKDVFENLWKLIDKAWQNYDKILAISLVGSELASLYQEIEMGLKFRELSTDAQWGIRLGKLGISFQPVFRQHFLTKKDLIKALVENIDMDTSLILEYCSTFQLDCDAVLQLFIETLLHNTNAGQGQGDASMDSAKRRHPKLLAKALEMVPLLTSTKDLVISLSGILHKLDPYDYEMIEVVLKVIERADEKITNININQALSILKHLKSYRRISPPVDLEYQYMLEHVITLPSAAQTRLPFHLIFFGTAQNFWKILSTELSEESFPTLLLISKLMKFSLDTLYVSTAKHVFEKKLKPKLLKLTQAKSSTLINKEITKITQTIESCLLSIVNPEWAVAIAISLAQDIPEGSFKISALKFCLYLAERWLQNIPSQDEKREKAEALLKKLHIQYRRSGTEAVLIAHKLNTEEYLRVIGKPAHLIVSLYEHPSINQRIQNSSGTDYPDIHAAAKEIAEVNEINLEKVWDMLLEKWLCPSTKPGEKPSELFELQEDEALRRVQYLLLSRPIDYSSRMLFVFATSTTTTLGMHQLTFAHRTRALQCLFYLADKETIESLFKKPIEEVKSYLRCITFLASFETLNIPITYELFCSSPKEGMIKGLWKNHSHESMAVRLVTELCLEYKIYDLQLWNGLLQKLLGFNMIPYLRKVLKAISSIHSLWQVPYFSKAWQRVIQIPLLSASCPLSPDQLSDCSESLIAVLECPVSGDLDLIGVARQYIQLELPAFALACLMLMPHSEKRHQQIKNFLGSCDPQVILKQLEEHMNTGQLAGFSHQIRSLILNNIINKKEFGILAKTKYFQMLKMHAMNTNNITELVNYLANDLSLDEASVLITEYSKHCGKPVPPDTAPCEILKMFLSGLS
T1 sequence (Q9H900 whole entry, chain 2 of 4, further chain, the tested form may be a part): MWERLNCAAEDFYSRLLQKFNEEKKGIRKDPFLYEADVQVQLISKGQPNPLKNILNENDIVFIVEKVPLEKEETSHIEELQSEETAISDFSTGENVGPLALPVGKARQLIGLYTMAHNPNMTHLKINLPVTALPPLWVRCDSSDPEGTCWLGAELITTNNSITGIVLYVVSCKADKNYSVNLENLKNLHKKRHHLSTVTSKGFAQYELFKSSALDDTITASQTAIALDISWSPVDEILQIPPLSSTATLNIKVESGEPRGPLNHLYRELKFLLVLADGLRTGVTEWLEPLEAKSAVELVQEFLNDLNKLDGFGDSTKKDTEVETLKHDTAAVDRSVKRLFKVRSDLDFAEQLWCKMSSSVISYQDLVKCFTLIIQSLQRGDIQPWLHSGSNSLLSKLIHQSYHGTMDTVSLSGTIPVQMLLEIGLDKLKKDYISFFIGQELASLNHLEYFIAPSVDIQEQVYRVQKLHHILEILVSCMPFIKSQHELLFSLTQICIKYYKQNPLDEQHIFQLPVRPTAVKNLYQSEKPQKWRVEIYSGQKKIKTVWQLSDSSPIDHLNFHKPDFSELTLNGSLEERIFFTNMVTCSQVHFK
T1 sequence (O43264 whole entry, chain 3 of 4, further chain, the tested form may be a part): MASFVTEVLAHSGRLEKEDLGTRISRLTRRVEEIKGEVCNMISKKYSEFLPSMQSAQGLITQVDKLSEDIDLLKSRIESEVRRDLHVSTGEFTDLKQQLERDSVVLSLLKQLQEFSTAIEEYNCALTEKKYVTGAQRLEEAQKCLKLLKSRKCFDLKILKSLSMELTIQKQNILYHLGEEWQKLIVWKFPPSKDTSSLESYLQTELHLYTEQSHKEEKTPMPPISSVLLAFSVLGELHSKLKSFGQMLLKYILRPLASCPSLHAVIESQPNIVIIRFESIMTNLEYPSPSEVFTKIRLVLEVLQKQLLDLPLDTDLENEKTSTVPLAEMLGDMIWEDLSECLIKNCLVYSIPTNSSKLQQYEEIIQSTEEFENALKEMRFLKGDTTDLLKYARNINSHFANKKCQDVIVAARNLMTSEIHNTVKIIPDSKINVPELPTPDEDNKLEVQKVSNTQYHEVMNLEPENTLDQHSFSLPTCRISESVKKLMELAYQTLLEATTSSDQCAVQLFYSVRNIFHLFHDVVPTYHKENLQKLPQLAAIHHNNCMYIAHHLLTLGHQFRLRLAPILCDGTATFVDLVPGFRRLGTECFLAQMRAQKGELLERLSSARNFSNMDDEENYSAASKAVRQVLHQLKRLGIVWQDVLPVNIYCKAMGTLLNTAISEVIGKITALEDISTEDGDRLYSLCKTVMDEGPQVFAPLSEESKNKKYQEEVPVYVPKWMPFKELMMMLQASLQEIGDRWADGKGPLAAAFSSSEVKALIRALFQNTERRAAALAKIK
T1 sequence (Q96EA4 whole entry, chain 4 of 4, further chain, the tested form may be a part): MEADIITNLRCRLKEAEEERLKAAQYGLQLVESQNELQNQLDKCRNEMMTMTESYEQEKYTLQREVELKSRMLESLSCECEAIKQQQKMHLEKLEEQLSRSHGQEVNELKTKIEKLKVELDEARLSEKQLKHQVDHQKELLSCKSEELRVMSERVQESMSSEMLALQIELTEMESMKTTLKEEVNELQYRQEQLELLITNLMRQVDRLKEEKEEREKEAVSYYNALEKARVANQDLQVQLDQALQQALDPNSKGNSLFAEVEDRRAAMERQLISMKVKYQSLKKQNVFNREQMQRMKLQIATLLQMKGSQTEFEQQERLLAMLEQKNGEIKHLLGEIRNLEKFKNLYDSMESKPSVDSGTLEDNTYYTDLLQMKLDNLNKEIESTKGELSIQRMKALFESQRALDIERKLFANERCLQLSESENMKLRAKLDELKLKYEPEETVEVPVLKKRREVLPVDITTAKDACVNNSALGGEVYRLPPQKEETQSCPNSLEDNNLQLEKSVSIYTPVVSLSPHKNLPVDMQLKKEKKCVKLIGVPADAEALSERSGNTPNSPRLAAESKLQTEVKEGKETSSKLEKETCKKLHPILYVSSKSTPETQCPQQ

B1: MBP-MAD1:MAD2-6His, full length (complex)
chain 1: MEDLGENTMVLSTLRSLNNFISQRVEGGSGLDISTSAPGSLQMQYQQSMQLEERAEQIRSKSHLIQVEREKMQMELSHKRARVELERAASTSARNYEREVDRNQELLTRIRQLQEREAGAEEKMQEQLERNRQCQQNLDAASKRLREKEDSLAQAGETINALKGRISELQWSVMDQEMRVKRLESEKQELQEQLDLQHKKCQEANQKIQELQASQEARADHEQQIKDLEQKLSLQEQDAAIVKNMKSELVRLPRLERELKQLREESAHLREMRETNGLLQEELEGLQRKLGRQEKMQETLVGLELENERLLAKLQSWERLDQTMGLSIRTPEDLSRFVVELQQRELALKDKNSAVTSSARGLEKARQQLQEELRQVSGQLLEERKKRETHEALARRLQKRVLLLTKERDGMRAILGSYDSELTPAEYSPQLTRRMREAEDMVQKVHSHSAEMEAQLSQALEELGGQKQRADMLEMELKMLKSQSSSAEQSFLFSREEADTLRLKVEELEGERSRLEEEKRMLEAQLERRALQGDYDQSRTKVLHMSLNPTSVARQRLREDHSQLQAECERLRGLLRAMERGGTVPADLEAAAASLPSSKEVAELKKQVESAELKNQRLKEVFQTKIQEFRKACYTLTGYQIDITTENQYRLTSLYAEHPGDCLIFKATSPSGSKMQLLETEFSHTVGELIEVHLRRQDSIPAFLSSLTLELFSRQTVA
chain 2: [about 200 residues not listed]
notes: MAD1 (mitotic arrest deficient 1); MAD2 (mitotic arrest deficient 2); In the pull-downs with phosphorylation bait and prey were incubated together with CCC and MPS1 kinase domain, so this prey met the kinases too; also called MBP-MAD1/2; ^MBPMAD1/2^FL; source: Tnao38 insect cells coinfected with baculoviruses, purified (HisTrap, ResourceQ)
binding result: binds

From publication PMC12429063, “The BUB1 and BUBR1 paralogs scaffold the kinetochore fibrous corona” (Science Advances, 2025)
